# Results: the supplement of paper PMC11876631
# ± gives the standard deviation of the averaged measurements. Laboratory Escherichia coli strains with one amino-acid change in an essential protein, pooled on minimal glucose agar with carbenicillin or gentamicin at twice the control MIC (plus kanamycin and chloramphenicol for the plasmids), 48 h. Fold change of barcode share against drug-free plates; higher = less susceptible. Active = above 20 in both replicates (the paper's putatively resistant). '<' = one read or none on drug, '>' = one read or none on a drug-free plate. Shares are relative, so most strains fall below 1 when a few take over. Listed are strains with at least 15 reads on both drug-free plates, and hits; most hits rest on fewer reference reads. Replicate rank correlation about 0.5. Edits are read from barcodes.
# B1: fes; numbered along this chain (parent)
# chain: MTALKVGSESWWQSKHGPEWQRLNDEMFEVTFWWRDPQGSEEYSTIKRVWVYITGVTDHHQNSQPQSMQRIAGTNVWQWTTQLNANWRGSYCFIPTERDDIFSVPSPDRLELREGWRKLLPQAIADPLNLQSWKGGRGHAVSALEMPQAPLQPGWDCPQAPEIPAKEIIWKSERLKKSRRVWIFTTGDATAEERPLAVLLDGEFWAQSMPVWPVLTSLTHRQQLPPAVYVLIDAIDTTHRAHELPCNADFWLAVQQELLPLVKAIAPFSDRADRTVVAGQSFGGLSALYAGLHWPERFGCVLSQSGSYWWPHRGGQQEGVLLEKLKAGEVSAEGLRIVLEAGIREPMIMRANQALYAQLHPIKESIFWRQVDGGHDALCWRGGLMQGLIDLWQPLFHDRS
# Variants of: B1
# Test: barcode share on antibiotic plates over drug-free plates; higher = less susceptible
# Details: with Escherichia coli (laboratory strain); antibiotic: carbenicillin; 2× MIC (3.1 µg/mL)
# Protocol: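 A pool of E. coli strains, each edited to carry one amino-acid change in an essential protein, was grown for 48 h on minimal glucose agar with or without antibiotic; strain barcodes were sequenced; mean of two replicates.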
row,Variant,fold change of barcode share
1,I183A,0.583 ± 0.085
2,I183P,0.709 ± 0.23
3,I183Q,1.01 ± 0.35
4,I183W,0.957 ± 0.46
5,V230A,0.883 ± 0.17
6,V230D,> 36.2 [active]
7,V230W,1.77 ± 0.23
8,L258A,0.465 ± 0.25
9,L258Q,0.708 ± 0.1
10,L258W,0.514 ± 0.27
11,V262A,0.728 ± 0.36
12,V262P,1.81 ± 0.83
13,V262Q,1.23 ± 0.49
14,V262W,1.27 ± 0.22
15,V301A,4.2 ± 1.8
16,V301D,> 38.5 [active]
17,V301P,2.33 ± 0.52
18,V301Q,2.86 ± 0.18
19,V301W,> 60.4 [active]
20,L302A,1.89 ± 0.45
21,L302D,4.24 ± 0.91
22,L302P,> 55.8 [active]
23,L302Q,1.97 ± 0.073
24,L302W,> 83.1 [active]
25,V338D,0.758 ± 0.19
26,V338Q,0.663 ± 0.43
27,V338W,0.999 ± 0.44
28,L339A,5.13 ± 3.8
29,L339P,> 30.3 [active]
30,L339W,1.47 ± 0.52

# Same assay, conditions: with Escherichia coli (laboratory strain); antibiotic: gentamicin; 2× MIC (MIC 0.45 µg/mL)
row,Variant,fold change of barcode share
1,I183A,0.0472 ± 0.029
2,I183P,0.228 ± 0.22
3,I183Q,0.121 ± 0.15
4,I183W,0.0282 ± 0.032
5,V230A,0.032 ± 0.038
6,V230W,0.174 ± 0.15
7,L258A,0.0226 ± 0.018
8,L258Q,0.0413 ± 0.043
9,L258W,0.0444 ± 0.038
10,V262A,0.0437 ± 0.054
11,V262P,0.0986 ± 0.11
12,V262Q,0.0838 ± 0.077
13,V262W,0.159 ± 0.17
14,V301A,0.0713 ± 0.038
15,V301P,0.106 ± 0.11
16,V301Q,0.0849 ± 0.06
17,L302A,0.0589 ± 0.067
18,L302Q,0.105 ± 0.12
19,V338D,0.0681 ± 0.063
20,V338Q,0.111 ± 0.15
21,V338W,0.0432 ± 0.047
22,L339A,0.0774 ± 0.06
23,L339W,0.252 ± 0.23
24,I183D,0.148 ± 0.15
